Measured values from article PMC4336329 (PLoS ONE, 2015).
Hit rate of the full screen: of about 310,000 compounds, about 2,200 (0.71%) showed an effect of 50% or more. Effects have a minus sign here. The list shows a part of the results.

Molecular target: human ether-à-go-go-related gene (hERG) potassium channel (human, UniProt Q12809)
Assay: primary screen, population patch clamp on CHO cells stably expressing hERG

human ether-à-go-go-related gene (hERG) potassium channel, sequence (Q12809 whole entry, looked up): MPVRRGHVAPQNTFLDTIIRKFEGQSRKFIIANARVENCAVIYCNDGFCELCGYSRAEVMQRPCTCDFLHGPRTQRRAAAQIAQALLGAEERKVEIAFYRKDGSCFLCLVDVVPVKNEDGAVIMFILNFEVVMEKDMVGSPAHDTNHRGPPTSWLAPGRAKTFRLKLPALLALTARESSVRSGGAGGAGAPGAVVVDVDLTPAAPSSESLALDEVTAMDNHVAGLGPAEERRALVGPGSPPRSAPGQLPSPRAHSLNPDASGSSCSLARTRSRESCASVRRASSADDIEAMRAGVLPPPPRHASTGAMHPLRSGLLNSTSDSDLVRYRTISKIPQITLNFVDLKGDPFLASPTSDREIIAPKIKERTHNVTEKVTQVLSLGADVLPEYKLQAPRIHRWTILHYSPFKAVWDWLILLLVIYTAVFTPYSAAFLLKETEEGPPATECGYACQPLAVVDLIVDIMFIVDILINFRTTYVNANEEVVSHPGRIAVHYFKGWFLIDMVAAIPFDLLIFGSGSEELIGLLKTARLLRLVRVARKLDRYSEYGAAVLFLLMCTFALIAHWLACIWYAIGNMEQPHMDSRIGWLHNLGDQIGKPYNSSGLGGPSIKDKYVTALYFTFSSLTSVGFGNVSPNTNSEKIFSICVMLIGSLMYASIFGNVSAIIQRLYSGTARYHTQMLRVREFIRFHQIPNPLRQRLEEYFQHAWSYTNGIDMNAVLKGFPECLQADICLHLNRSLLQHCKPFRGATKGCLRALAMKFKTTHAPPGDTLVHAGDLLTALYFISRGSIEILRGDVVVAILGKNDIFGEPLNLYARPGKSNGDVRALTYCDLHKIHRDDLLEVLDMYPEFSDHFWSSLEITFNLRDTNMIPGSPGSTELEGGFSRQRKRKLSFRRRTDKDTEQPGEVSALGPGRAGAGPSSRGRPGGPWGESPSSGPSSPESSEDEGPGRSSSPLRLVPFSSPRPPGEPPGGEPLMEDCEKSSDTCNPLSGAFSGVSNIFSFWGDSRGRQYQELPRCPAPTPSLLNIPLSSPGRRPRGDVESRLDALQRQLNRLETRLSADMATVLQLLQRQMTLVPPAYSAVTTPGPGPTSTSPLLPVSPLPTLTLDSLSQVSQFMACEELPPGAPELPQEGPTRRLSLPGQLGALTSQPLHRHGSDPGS

Compound	hERG current change (%, negative = inhibition) at 1uM [%]
COc1ccccc1CC(=O)N(Cc1ccccc1)c1cccc(C)c1	8.75
Cc1nc2cc(C(=O)OCC(=O)NC(C)C(C)C)ccc2n1-c1ccccc1 (stereo not drawn)	8.33
COc1ccc(C(=O)NCC(=O)OCC(=O)c2ccc3c(c2)NC(=O)CO3)cc1	-14.3
O=C(CSc1nnc(CNC(=O)c2ccco2)o1)Nc1cccc(C(F)(F)F)c1	-7.49
CC(=O)N1CCCc2cc(S(=O)(=O)Nc3cccc(C)c3C)ccc21	15.5
O=C(NCc1ccccc1)c1onc(CSc2ccccc2)c1C(=O)NCc1ccccc1	16.8
CC(=O)N1CC(C)Oc2ccc(S(=O)(=O)NC(CC(=O)O)c3ccccc3C)cc21 (stereo not drawn)	21.4
COc1cc(S(=O)(=O)NC2CCCCC2C)ccc1F (stereo not drawn)	-14.1
CC(C)Oc1ccccc1C1CC(=O)Nc2c1c(=O)n(C)c(=O)n2C (stereo not drawn)	13.4
Nc1nc(SCc2ccc(Br)cc2)n[nH]1	10.7
Cc1ccccc1NC(=O)Cn1c(=O)n(-c2ccc(CC(=O)NCC3CCCO3)cc2)c(=O)c2ccccc21 (stereo not drawn)	7.39
Cc1ccc(-c2nn(-c3ccccc3)cc2C2CC(c3ccccc3)=NN2C(=O)CCC(=O)O)cc1 (stereo not drawn)	10
O=C(CC1NCCNC1=O)OCCCc1ccccc1 (stereo not drawn)	6.66
Cc1ccc(S(=O)(=O)N(C)CC(=O)N/N=C/c2ccc(C)o2)cc1	-4.09
COc1ccc(C(=O)C2CCCN(C(=O)Cc3c(C)noc3C)C2)cc1OC (stereo not drawn)	11.3
COc1ccc(Cn2c(-c3ccco3)nc3c(c(=O)c4ccccc4n3C)c2=O)cc1	7.34
CC1(c2ccccc2)CC(c2ccccc2)=Nc2ccccc2N1 (stereo not drawn)	9.5
CN(C)CCCNS(=O)(=O)c1cc(Cl)c(Cl)cc1Cl	7.89
CCC(C)NS(=O)(=O)c1ccc(NC(=O)c2cccs2)cc1 (stereo not drawn)	15.3
Cc1ccccc1/C=C/C(=O)c1ccc([N+](=O)[O-])o1	4.46
COC(=O)CSc1nnc(-c2ccccc2O)n1-c1ccc(C)cc1	4.16
Cn1c(=O)c2c(SCC(=O)N3CCN(c4ccccc4)CC3)nc(C3CC3)nc2n(C)c1=O	-14.2
C=CCN(C(=O)CSC1=NC(=O)CN1C(C)=O)c1nc(C)c(-c2ccccc2)s1	12
CCc1nc(N)c(C#N)c(-c2ccc(O)c(OC)c2)c1C	9.01
